According to PMC12136788:
The other results are listed elsewhere or left out.

B1: chr17:77200548:77200649:+|CDS|ENSG00000129657|msi1|FALSE|bound_elsewhere (ssRNA)
RNA: GGGAGUUCUACAGUCCGACGAUCUAUUGACAAAGCCAGAGAGAUCAUGUGUCAGUCUUUGACGUGGAGAAAGCAGCAUCAGGUAGACUACAUUCUUGAAACCUGGACCCCUCCUCAGGUCCUUCAGGAUUACUACGCGGGAGGCAACAGAGGAUUGAGCAUCA
B2: ENSG00000136451:be:win_1951|3pUTR|ENSG00000136451|bound_else_gene|NA|bound_elsewhere_windowed (ssRNA)
RNA: GGGAGUUCUACAGUCCGACGAUCCAAGGUGGAUGGCUGAUUUUAACCUGAAAUUUUAAAUCCACAGAUUGAGAGCUAGUGUAGAAUUGUCUGUGUUUAUUGUUUUUAUGAGUAAAUACAUGCAUUGUCAUAAUAAAAUGCAUUCAACAGAGGAUUGAGCAUCA
B3: chr17:7460970:7461071:-|3pUTR|ENSG00000174282|msi1|total|mutant (ssRNA)
RNA: GGGAGUUCUACAGUCCGACGAUCGGAUGGAGAAGGGAAUCUACUUUCUCCCUGUUUUUUUUUCCUGAUGGUUUCUCCCAGACCCGACCAAACCGCCAGAAAAAUGACCGGGGUCGGAUGGGUGGGUAAGCCCAGGAUUUGCACCAACAGAGGAUUGAGCAUCA
B4: chrX:154027874:154027956:-|3pUTR|ENSG00000169057|msi1_unk|FALSE|overlapping (ssRNA)
RNA: GGGAGUUCUACAGUCCGACGAUCUGGUUAGAAGUGAGGGAGUUUGCCCCGUUCUGUUUGUAGAGUCUCAUAGUUGGACUUUCUAGCAUAUAUGUGUCCAUUUCCUUAUGCUGUAAAAGCAAGUCCUGCAACCAAACUCCCAUCCAACAGAGGAUUGAGCAUCA
B5: chr1:93152962:93153063:-|3pUTR|ENSG00000117500|msi1|FALSE|bound_elsewhere (ssRNA)
RNA: GGGAGUUCUACAGUCCGACGAUCGCUGGAAUUCUUGAUGAGCAAUAAUGAUAACCAGAGAGUGAUUUCAUUUACACUCAUAGUAGUAUAAAAAGAGAUACAUUUCCCUCUUAGGCCCCUGGGAGAAGAGCAGCUUAGAUUUCCCAACAGAGGAUUGAGCAUCA
B6: chr1:225494445:225494546:-|3pUTR|ENSG00000154380|msi1|FALSE|unique (ssRNA)
RNA: GGGAGUUCUACAGUCCGACGAUCUUGGGUGUUCCCUCUUCUUAUUUUCUCUCUGCCCACCUUGACACAGUAACUUCCUCUUAUAGUCAAGAUGAUGAUUAAGUGUUUAAUUUUUAUUCCAUUUUGUUCUGCAACACGUUCAGGCAACAGAGGAUUGAGCAUCA
B7: chr14:73713276:73713377:-|CDS|ENSG00000176903|unk|FALSE|unique (ssRNA)
RNA: GGGAGUUCUACAGUCCGACGAUCGGGCAAAGGAGGGGUCUGGAAAGUGUUAUUUAAGCCCCCAACUUCUGAUGCUGAAUUUUUAGAAAGAUUGCACCUCUUCCUAGCUAGAGAGGGGUGGACCGUGCAAGAUGUUGCCCGUGUCAACAGAGGAUUGAGCAUCA
B8: chr6:111694403:111694505:-|CDS|ENSG00000010810|unk|FALSE|bound_elsewhere (ssRNA)
RNA: GGGAGUUCUACAGUCCGACGAUCAAUGGCUUACAUCGAGCGCAUGAAUUAUAUCCAUAGAGAUCUGCGAUCAGCAAACAUUCUAGUGGGGAAUGGACUCAUAUGCAAGAUUGCUGACUUCGGAUUGGCCCGAUUGAUAGAAGACAACAGAGGAUUGAGCAUCA
B9: ENSG00000079335:stop:overlap|stop_codon|ENSG00000079335|stop_codon|NA|stop_codon (ssRNA)
RNA: GGGAGUUCUACAGUCCGACGAUCUUGGUGGAAAUCUUUCAAAAACACAAAACAUGGAACGAUUUGGAGAGGUAAGUUUUCCCUAGGAGAUUCUAUCUUCUUAAAACUGAUGUUCUGCAUUUGUUUCUCAGUUGGACCUAUAUACAACAGAGGAUUGAGCAUCA
B10: chr2:240466480:240466663:+|3pUTR|ENSG00000063660|msi1|total|mutant (ssRNA)
RNA: GGGAGUUCUACAGUCCGACGAUCGGAGCCAGUGUGCCCAAAAGCCAUGUAUUUCAGGGACCUCAGGGGCACCUCCGGCUGCCCCGCCCUCCCCCCAGCUCCCUGCACCGCCGCAGAAGCAGCCCCUCGAGGCCUACAGAGGAGCAACAGAGGAUUGAGCAUCA
B11: chr12:118033712:118033825:-|3pUTR|ENSG00000176871|unk|total|mutant (ssRNA)
RNA: GGGAGUUCUACAGUCCGACGAUCCCUCCGCUGGGAACGAUGGCUUCUGCCCCGUACCUAUCCUUGUGUUUCUGAUGCAGUGGCCGCAUUGGUUCAAGUUCUCUCCUGCUGUGGUCAGAGUUGCUUCGAUGUUGGCCAAGUGCUCAACAGAGGAUUGAGCAUCA
B12: chr6:149410404:149410522:+|3pUTR|ENSG00000055208|unk|total|mutant (ssRNA)
RNA: GGGAGUUCUACAGUCCGACGAUCUUAUAUUUCUAUAUGUACCGUGUAACCGCCUUUUGUUAACUAAUUUUCUUUUUUCCUUUCCGUAAUUAAGCACGAUCAUGUCCCUUUUUAAGCCUUACCUGAGAGGAACAAUGCCUUAAACAACAGAGGAUUGAGCAUCA
B13: chr12:49764829:49764866:+|3pUTR|ENSG00000139644|msi1_unk|FALSE|overlapping (ssRNA)
RNA: GGGAGUUCUACAGUCCGACGAUCACUUUUAAAGAAAAUACCUAACAGAUUUUUAAUAUAGUUAUCUCUACCACUUUCUUUUCUAGUUUCUUGAUUUUCAGCUCAGGCUGCAUUCUAACUCAUACUGUGAAGACAAAGGUGUUUCAACAGAGGAUUGAGCAUCA
B14: chr8:116643852:116643953:-|3pUTR|ENSG00000147677|unk|FALSE|unique (ssRNA)
RNA: GGGAGUUCUACAGUCCGACGAUCUGUUGUGAAUGAGGAAUUAGGAAUUAGGAGAAUGGUAGUACAUUGGGAAAAACAUAUUUUAGUAAUUUUUAUAUUUUAAAGAUAAUCACAGAUUUUGCUGUUUGUGCAUCACCAAAAUCACAACAGAGGAUUGAGCAUCA

Target: MSI1 full-length (mouse, UniProt Q61474 1-362)
Assay: nsRBNS (natural sequence RNA bind-n-seq); RBNS binding buffer (assumed for nsRBNS): 25 mM Tris pH 7.5, 150 mM KCl, 3 mM MgCl2, 0.01% Triton X-100, 500 ug/ml BSA, 20 U/ml SUPERase-In, 4 C; UNK is unkempt and MSI1 is Musashi-1; names of the RNAs are library labels; protein concentration not given here; high values mean tight binding

Sequence of UniProt Q61474 (Q61474 whole entry): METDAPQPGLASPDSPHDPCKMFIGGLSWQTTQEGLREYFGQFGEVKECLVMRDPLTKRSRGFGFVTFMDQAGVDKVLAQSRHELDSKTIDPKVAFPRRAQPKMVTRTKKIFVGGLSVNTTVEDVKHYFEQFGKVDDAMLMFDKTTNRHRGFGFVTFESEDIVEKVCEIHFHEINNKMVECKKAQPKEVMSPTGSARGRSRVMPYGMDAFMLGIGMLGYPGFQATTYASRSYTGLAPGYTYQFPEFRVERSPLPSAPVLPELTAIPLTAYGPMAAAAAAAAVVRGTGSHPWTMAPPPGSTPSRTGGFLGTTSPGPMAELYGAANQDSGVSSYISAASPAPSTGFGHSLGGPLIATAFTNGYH

| Binder | binding signal [enrichment R] |
| --- | --- |
| B1 | 0.42 |
| B2 | 1.39 |
| B3 | 0.32 |
| B4 | 0.756 |
| B5 | 12.1 |
| B6 | 0.951 |
| B7 | 1.19 |
| B8 | 0.4 |
| B9 | 4.56 |
| B10 | 0.43 |
| B11 | 0.348 |
| B12 | 11.2 |
| B13 | 3.05 |
| B14 | 7.02 |
